Experimental data reported in a compilation of properties of binary mixtures (doi:10.1021/je00013a028).
The densities may have been worked out from excess volumes.

Test: xn = mol fraction of the nth substance listed
Conditions: 298.15 K, 100 kPa

COCCOC + COC(=O)OC
Conditions	mass density [kg/m3]
x1 = 0.0157	1059.4
x2 = 0.087	876.5
x2 = 0.2114	898
x2 = 0.2677	908
x2 = 0.3292	919.2
x2 = 0.378	928.9
x2 = 0.3792	928.6
x2 = 0.4013	932.8
x2 = 0.4328	938.8
x2 = 0.495	951
x2 = 0.5065	953.2
x2 = 0.5509	962.1
x2 = 0.6579	984.3
x2 = 0.7347	1000.1
x2 = 0.8064	1017
x2 = 0.8606	1029.5
x2 = 0.9243	1044.7

C1CCOCC1 + COC(=O)OC
Conditions	mass density [kg/m3]
x1 = 0.0128	1060.3
x1 = 0.0146	1059.9
x2 = 0.0187	881.8
x2 = 0.0848	891.4
x2 = 0.1845	906.6
x2 = 0.2583	918.3
x2 = 0.4147	944.7
x2 = 0.4446	949.9
x2 = 0.473	955
x2 = 0.4953	959
x2 = 0.5346	966.3
x2 = 0.5952	977.7
x2 = 0.5968	978
x2 = 0.6618	990.6
x2 = 0.746	1007.6
x2 = 0.8006	1018.9
x2 = 0.8812	1036.3
x2 = 0.9072	1042.1

C1CCOC1 + COC(=O)OC
Conditions	mass density [kg/m3]
x2 = 0.1237	904.3
x2 = 0.1349	906.8
x2 = 0.2361	924.8
x2 = 0.3011	935.9
x2 = 0.3218	939.6
x2 = 0.3502	944.7
x2 = 0.4333	959.6
x2 = 0.4377	960.4
x2 = 0.4702	966.2
x2 = 0.4929	970.3
x2 = 0.548	980.2
x2 = 0.7095	1009.6
x2 = 0.8261	1031
x2 = 0.9697	1057.7

C1COCCO1 + COC(=O)OC
Conditions	mass density [kg/m3]
x2 = 0.0173	1028.6
x2 = 0.1766	1033.1
x2 = 0.3783	1039.5
x2 = 0.4669	1042.6
x2 = 0.4758	1042.9
x2 = 0.5098	1044.1
x2 = 0.56	1045.5
x2 = 0.6417	1048.9
x2 = 0.724	1052.1
x2 = 0.7668	1053.8
x2 = 0.8544	1057.3
x2 = 0.9108	1059.6

COCOC + COC(=O)OC
Conditions	mass density [kg/m3]
x1 = 0.0159	1059.9
x2 = 0.0165	860.3
x2 = 0.0996	877.1
x2 = 0.1676	890.8
x2 = 0.2915	916.1
x2 = 0.3434	926.6
x2 = 0.4013	938.5
x2 = 0.4448	947.4
x2 = 0.4698	952.5
x2 = 0.5011	958.9
x2 = 0.5614	971.3
x2 = 0.7266	1005.8
x2 = 0.7976	1020.4
x2 = 0.8348	1028.3
x2 = 0.9228	1046.9

C1COCO1 + COC(=O)OC
Conditions	mass density [kg/m3]
x2 = 0.0396	1058.9
x2 = 0.1136	1059.2
x2 = 0.1891	1059.6
x2 = 0.2516	1059.9
x2 = 0.2875	1060
x2 = 0.3347	1060.3
x2 = 0.3646	1060.4
x2 = 0.3996	1060.6
x2 = 0.419	1060.6
x2 = 0.4601	1060.8
x2 = 0.5048	1061
x2 = 0.5236	1061.1
x2 = 0.582	1061.4
x2 = 0.6563	1061.7
x2 = 0.7058	1061.9
x2 = 0.8082	1062.4
x2 = 0.8669	1062.7
